# Test results reported in the supplement of paper PMC12217912.
# This is one part of the list. Sequences were assembled here from the parent chain. Values near 0.05 are background.
# B1: TEV protease; numbered along this chain (parent)
# chain: MGESLFKGPRDYNPISSSICHLTNESDGHTTSLYGIGFGPFIITNKHLFRRNNGTLVVQSLHGVFKVKDTTTLQQHLVDGRDMIIIRMPKDFPPFPQKLKFREPQREERICLVTTNFQTKSMSSMVSDTSCTFPSGDGIFWKHWIQTKDGQCGSPLVSTRDGFIVGIHSASNFTNTNNYFTSVPKNFMELLTNQEAQQWVSGWRLNADSVLWGGHKVFMVKPEEPFQPVKEATQL
# Variants of: B1
# Assay: raw area under fraction-flipped curve 0-4 h after induction (AUC4h, not background-subtracted), DNA-recorder readout of cleavage of the substrate (dimensionless); higher = more cleavage of the substrate by the protease variant
# Settings: temperature: 34 °C; time window: 0-4 h after rhamnose induction
# Procedure: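 In vivo DNA recorder in E. coli TOP10(DE3) ΔrhaA at 34 °C. Each TEVp single-site mutant (parent TEVp 0) is paired with a single-site variant of the 7-mer TEVs (canonical ENLYFQ|S). The substrate sits between flexible linkers in a Bxb1-sfGFP-TEVs-SsrA fusion, so cleavage stabilises Bxb1 and speeds flipping of a recombination array, read by NGS. The value is the raw area under the fraction-flipped curve over 0-4 h after rhamnose induction (AUC4h), with ≥20 reads per time point. It is not background-subtracted; inactive controls average about 0.047.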
# 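Also: Bxb1 expression induced with 0.2% (w/v) L-rhamnose at OD600 near 0.5, cultures sampled hourly, flipped fraction per protease–substrate barcode pair counted by paired-end Illumina sequencing.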
variant,measurement,value
MGESLFKGPRDYNPISSSICHLTNESDGHTTSLYGIGFGPFIITNKHLFRRNNGTLVVQSLHGVFKVKDTTTLQQHDVDGRDMIIIRMPKDFPPFPQKLKFREPQREERICLVTTNFQTKSMSSMVSDTSCTFPSGDGIFWKHWIQTKDGQCGSPLVSTRDGFIVGIHSASNFTNTNNYFTSVPKNFMELLTNQEAQQWVSGWRLNADSVLWGGHKVFMVKPEEPFQPVKEATQL [L77D],area with substrate ENLYCQS,0.0753
same,area with substrate ENLYDQS,0.0654
same,area with substrate ENLYEQS,0.065
same,area with substrate ENLYGQS,0.0571
same,area with substrate ENLYHQS,0.0588
same,area with substrate ENLYIQS,0.0675
same,area with substrate ENLYKQS,0.0622
same,area with substrate ENLYLQS,0.0576
same,area with substrate ENLYMQS,0.0645
same,area with substrate ENLYNQS,0.0617
same,area with substrate ENLYPQS,0.0557
same,area with substrate ENLYQQS,0.0569
same,area with substrate ENLYRQS,0.0549
same,area with substrate ENLYSQS,0.0624
same,area with substrate ENLYVQS,0.0686
same,area with substrate ENLYYQS,0.0632
MGESLFKGPRDYNPISSSICHLTNESDGHTTSLYGIGFGPFIITNKHLFRRNNGTLVVQSLHGVFKVKDTTTLQQHLVDGRDMIIIRMPKDFPPFPQKLKFREPQREERICLVTTNFQTKSMSSMVSDTSCTFPSGDGIFWKHWIQTKDGQCGSPLVSTHDGFIVGIHSASNFTNTNNYFTSVPKNFMELLTNQEAQQWVSGWRLNADSVLWGGHKVFMVKPEEPFQPVKEATQL [R160H],area with substrate ENLYCQS,0.0574
same,area with substrate ENLYDQS,0.0564
same,area with substrate ENLYHQS,0.0613
same,area with substrate ENLYIQS,0.138
same,area with substrate ENLYKQS,0.0503
same,area with substrate ENLYNQS,0.0688
same,area with substrate ENLYTQS,0.07
same,area with substrate ENLYVQS,0.13
same,area with substrate ENLYWQS,0.08
MGESLFKGPRDYNPISSSICHLTNESDGHTTSLYGIGFGPFIITNKHLFRRNNGTLVVQSLHGVFKVKDATTLQQHLVDGRDMIIIRMPKDFPPFPQKLKFREPQREERICLVTTNFQTKSMSSMVSDTSCTFPSGDGIFWKHWIQTKDGQCGSPLVSTRDGFIVGIHSASNFTNTNNYFTSVPKNFMELLTNQEAQQWVSGWRLNADSVLWGGHKVFMVKPEEPFQPVKEATQL [T70A],area with substrate ENLYCQS,0.0757
same,area with substrate ENLYEQS,0.0642
same,area with substrate ENLYGQS,0.0645
same,area with substrate ENLYHQS,0.0723
same,area with substrate ENLYIQS,0.105
same,area with substrate ENLYKQS,0.0667
same,area with substrate ENLYNQS,0.0621
same,area with substrate ENLYPQS,0.0594
same,area with substrate ENLYQQS,0.0633
same,area with substrate ENLYSQS,0.0566
same,area with substrate ENLYTQS,0.0543
same,area with substrate ENLYVQS,0.0784
same,area with substrate ENLYYQS,0.0661
MGESLFKGPRDYNPISSSICHLTNESDGHTTSLYGIGFGPFIITNKHLFRRNNGTLVVQSLHGVFKVKDTTTLQQHLVDGRDMIIIRMPKDFPPFPQKLKFREPQREERICLVTTNFQTKSMSSMVSDTSCTFPSGDGIFWKHWYQTKDGQCGSPLVSTRDGFIVGIHSASNFTNTNNYFTSVPKNFMELLTNQEAQQWVSGWRLNADSVLWGGHKVFMVKPEEPFQPVKEATQL [I145Y],area with substrate ENLYCQS,0.0829
same,area with substrate ENLYDQS,0.0626
same,area with substrate ENLYEQS,0.0626
same,area with substrate ENLYGQS,0.0677
same,area with substrate ENLYHQS,0.0581
same,area with substrate ENLYIQS,0.0801
same,area with substrate ENLYKQS,0.0476
same,area with substrate ENLYMQS,0.0438
same,area with substrate ENLYNQS,0.0608
same,area with substrate ENLYPQS,0.0697
same,area with substrate ENLYQQS,0.0563
same,area with substrate ENLYRQS,0.0434
same,area with substrate ENLYSQS,0.0753
same,area with substrate ENLYVQS,0.0876
same,area with substrate ENLYWQS,0.0656
same,area with substrate ENLYYQS,0.0513
MGESLFKGPRDYNPISSSICHLTNESDGHTTSLYGIGFGPFIITNKHLFRRNNGTLVVQSLHGVFKVKDTTTLQQHLVDGRDMIIIRMPKDFPPFPQKLKFREPQREERICLVTTNFQTKSMSSMVSDTSCTFPSGDGIFWKWWIQTKDGQCGSPLVSTRDGFIVGIHSASNFTNTNNYFTSVPKNFMELLTNQEAQQWVSGWRLNADSVLWGGHKVFMVKPEEPFQPVKEATQL [H143W],area with substrate ENLYCQS,0.0072
same,area with substrate ENLYDQS,0.0517
same,area with substrate ENLYEQS,0.061
same,area with substrate ENLYGQS,0.0631
same,area with substrate ENLYHQS,0.0595
same,area with substrate ENLYIQS,0.0816
same,area with substrate ENLYKQS,0.0331
same,area with substrate ENLYMQS,0.0601
same,area with substrate ENLYNQS,0.124
same,area with substrate ENLYPQS,0.0505
same,area with substrate ENLYSQS,0.0495
same,area with substrate ENLYVQS,0.0369
same,area with substrate ENLYWQS,0.0527
same,area with substrate ENLYYQS,0.0675
MGESLFKGPRDYNPISSSICHLTNESDGHTTSLYGIGFGPFICTNKHLFRRNNGTLVVQSLHGVFKVKDTTTLQQHLVDGRDMIIIRMPKDFPPFPQKLKFREPQREERICLVTTNFQTKSMSSMVSDTSCTFPSGDGIFWKHWIQTKDGQCGSPLVSTRDGFIVGIHSASNFTNTNNYFTSVPKNFMELLTNQEAQQWVSGWRLNADSVLWGGHKVFMVKPEEPFQPVKEATQL [I43C],area with substrate ENLYCQS,0.0921
same,area with substrate ENLYDQS,0.0575
same,area with substrate ENLYEQS,0.0676
same,area with substrate ENLYGQS,0.0548
same,area with substrate ENLYHQS,0.0621
same,area with substrate ENLYIQS,0.0905
same,area with substrate ENLYLQS,0.0638
same,area with substrate ENLYMQS,0.0707
same,area with substrate ENLYNQS,0.0705
same,area with substrate ENLYPQS,0.0656
same,area with substrate ENLYQQS,0.0592
same,area with substrate ENLYSQS,0.0726
same,area with substrate ENLYTQS,0.0715
same,area with substrate ENLYVQS,0.128
same,area with substrate ENLYWQS,0.0618
same,area with substrate ENLYYQS,0.0628
MGESLFKGPRDYAPISSSICHLTNESDGHTTSLYGIGFGPFIITNKHLFRRNNGTLVVQSLHGVFKVKDTTTLQQHLVDGRDMIIIRMPKDFPPFPQKLKFREPQREERICLVTTNFQTKSMSSMVSDTSCTFPSGDGIFWKHWIQTKDGQCGSPLVSTRDGFIVGIHSASNFTNTNNYFTSVPKNFMELLTNQEAQQWVSGWRLNADSVLWGGHKVFMVKPEEPFQPVKEATQL [N13A],area with substrate ENLYCQS,0.0939
same,area with substrate ENLYDQS,0.0574
same,area with substrate ENLYEQS,0.0745
same,area with substrate ENLYHQS,0.076
same,area with substrate ENLYIQS,0.109
same,area with substrate ENLYKQS,0.0688
same,area with substrate ENLYMQS,0.0802
same,area with substrate ENLYNQS,0.0665
same,area with substrate ENLYPQS,0.0739
same,area with substrate ENLYQQS,0.0488
same,area with substrate ENLYRQS,0.0675
same,area with substrate ENLYSQS,0.0765
same,area with substrate ENLYTQS,0.0457
same,area with substrate ENLYVQS,0.101
same,area with substrate ENLYWQS,0.0886
same,area with substrate ENLYYQS,0.0591
MGESLFKGPRDYNPISSSICHLTNESDGHTTSLYGIGFGPFIITNKHLFRRNNGTLVVQSLHGVFKVKDTTTLQQHLVDGRDMIIIRMPKDFPPFPQKLKFREPQREERICLVTTNFQTKSMSSMVSDTSCTFPSGDGIFWKHWIQTKDGQCGSPLVSTRDGFIVGIHSASNFTNTNNYFTSVPKNFMELLTNQEAQQWVSLWRLNADSVLWGGHKVFMVKPEEPFQPVKEATQL [G202L],area with substrate ENLYCQS,0.0641
same,area with substrate ENLYDQS,0.0634
same,area with substrate ENLYEQS,0.0661
same,area with substrate ENLYGQS,0.0552
same,area with substrate ENLYHQS,0.0387
same,area with substrate ENLYLQS,0.053
same,area with substrate ENLYMQS,0.0639
same,area with substrate ENLYNQS,0.0735
same,area with substrate ENLYPQS,0.0577
same,area with substrate ENLYRQS,0.0604
same,area with substrate ENLYSQS,0.0601
same,area with substrate ENLYTQS,0.0487
same,area with substrate ENLYVQS,0.0821
same,area with substrate ENLYWQS,0.0416
same,area with substrate ENLYYQS,0.0591
MGESLFKGPRDYNPISSSISHLTNESDGHTTSLYGIGFGPFIITNKHLFRRNNGTLVVQSLHGVFKVKDTTTLQQHLVDGRDMIIIRMPKDFPPFPQKLKFREPQREERICLVTTNFQTKSMSSMVSDTSCTFPSGDGIFWKHWIQTKDGQCGSPLVSTRDGFIVGIHSASNFTNTNNYFTSVPKNFMELLTNQEAQQWVSGWRLNADSVLWGGHKVFMVKPEEPFQPVKEATQL [C20S],area with substrate ENLYCQS,0.0607
same,area with substrate ENLYEQS,0.059
same,area with substrate ENLYGQS,0.065
same,area with substrate ENLYHQS,0.0556
same,area with substrate ENLYIQS,0.0959
same,area with substrate ENLYKQS,0.0512
same,area with substrate ENLYLQS,0.0616
same,area with substrate ENLYMQS,0.0655
same,area with substrate ENLYNQS,0.0576
same,area with substrate ENLYPQS,0.0631
same,area with substrate ENLYQQS,0.0568
same,area with substrate ENLYSQS,0.0696
same,area with substrate ENLYTQS,0.0696
same,area with substrate ENLYVQS,0.0874
same,area with substrate ENLYWQS,0.0871
same,area with substrate ENLYYQS,0.0797
